From the supplement of paper PMC9446081 come the findings set out here.

In all, about 39,000 compounds went through this assay and about 220 (0.56%) showed activity. The list shows a part of the results.
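Also: static incubation at 37 °C against the wild-type strain, values averaged over two biological replicates.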

The test system of the test is Escherichia coli K-12 BW25113. Kind of test: relative growth (OD600 normalised to plate interquartile mean) (fraction); higher = less growth inhibition, active = 0.2 or less. Particulars: 50 µM; LB; incubation time: overnight (16-24 h).
With `COc1cccc(-c2cn(CC[C@@H]3CC[C@@H](NC(=O)CN(C)C)[C@@H](CO)O3)nn2)c1`, the relative growth was inactive: 0.994.

Regarding `COc1ccccc1S(=O)(=O)N(C)C[C@H]1OCc2cnnn2CCCC(=O)N([C@@H](C)CO)C[C@@H]1C`, the relative growth was inactive: 1.01.

Take `O=C(CN1CCOCC1)N[C@@H]1CC[C@@H](CCNC(=O)C2CCCCC2)O[C@@H]1CO`: the relative growth was inactive: 1.02.

Regarding `Cc1noc(C)c1S(=O)(=O)Nc1ccc2c(c1)C(=O)N([C@@H](C)CO)C[C@@H](C)[C@H](CN(C)CC1CCCCC1)OCCCC[C@@H](C)O2`, the relative growth was inactive: 1.02.

Regarding `N[C@@H](CCC(=O)N[C@@H](CCS[C@@H](CC(=O)O)C(=O)O)C(=O)NCC(=O)O)C(=O)O`, the relative growth was inactive: 1.01.

As to `Cc1noc(C)c1NC(=O)N(C)C[C@@H]1OCCCC[C@@H](C)Oc2ccc(NC(=O)CCC(F)(F)F)cc2C(=O)N([C@H](C)CO)C[C@H]1C`, the relative growth was inactive: 1.01.

As to `C[C@H]1CCCCO[C@@H](CN(C)S(=O)(=O)c2cccs2)[C@@H](C)CN([C@@H](C)CO)C(=O)c2cc(NC(=O)Nc3ccc4c(c3)OCO4)ccc2O1`, the relative growth is inactive: 1.02.

Turning to `C[C@@H]1CN([C@@H](C)CO)C(=O)c2cc(NS(=O)(=O)c3ccc(F)cc3)ccc2O[C@@H](C)CCCCO[C@H]1CN(C)C(=O)NC1CCCCC1`, the relative growth is inactive: 1.03.

`N[C@](CC1c2ccccc2Oc2ccccc21)(C(=O)O)[C@H]1C[C@@H]1C(=O)O`: the relative growth was inactive: 1.01.

Regarding `COCC#Cc1ccc2c(c1)O[C@H](CN(C)C(=O)C1CCCCC1)[C@@H](C)CN([C@@H](C)CO)S2(=O)=O`, the relative growth is inactive: 1.03.

As for `Cc1noc(C)c1NC(=O)Nc1ccc2c(c1)C(=O)N([C@@H](C)CO)C[C@H](C)[C@@H](CN(C)Cc1ccc3c(c1)OCO3)OCCCC[C@@H](C)O2`, the relative growth was inactive: 0.98.

As to `C[C@@H]1CN([C@@H](C)CO)C(=O)c2cc(NC(=O)Nc3ccccc3)ccc2O[C@@H](C)CCCCO[C@@H]1CN(C)S(=O)(=O)c1cccs1`, the relative growth was inactive: 1.05.

For the compound `O=c1[nH]nc2ccccn12`, the relative growth is inactive: 1.01.

With `C[C@@H]1CN([C@@H](C)CO)C(=O)c2cc(NS(=O)(=O)c3ccc(Cl)cc3)ccc2O[C@H]1CN(C)Cc1ccc(-c2ccccc2)cc1`, the relative growth was inactive: 1.03.

In the case of `Cc1ccc(S(=O)(=O)Nc2cccc3c2O[C@@H](CN(C)Cc2ccc(-c4ccccc4)cc2)[C@@H](C)CN([C@@H](C)CO)C3=O)cc1`, the relative growth is inactive: 1.02.

In the case of `Nc1nc(NC2CC2)c2ncn(C3C=CC(CO)C3)c2n1.O=S(=O)(O)O` (centres undefined), the relative growth is inactive: 1.19.

In the case of `CN1CCN(C(=O)C[C@@H]2CC[C@H]3[C@@H](COC[C@H](O)CN3C(=O)Nc3cc(Cl)cc(Cl)c3)O2)CC1`, the relative growth was inactive: 0.978.

Take `C[C@@H]1CCCCO[C@H](CN(C)S(=O)(=O)c2ccccc2)[C@@H](C)CN([C@H](C)CO)C(=O)c2cc(NS(=O)(=O)c3cn(C)cn3)ccc2O1`: the relative growth was inactive: 0.978.

Consider `COc1ccc2c3c(n(c2c1)C)[C@@H](CO)N(C[C@]13CN(C1)C(=O)Nc1cccc(c1)F)S(=O)(=O)C`, for which the relative growth was inactive: 0.984.

As for `C[C@@H]1CN([C@H](C)CO)C(=O)c2cc(NC(=O)Nc3cccc4ccccc34)ccc2O[C@@H]1CN(C)Cc1ccccc1`, the relative growth was inactive: 1.02.

On to `Cc1noc(C)c1NC(=O)N(C)C[C@H]1Oc2ccc(NS(=O)(=O)c3cccs3)cc2CC(=O)N([C@H](C)CO)C[C@H]1C`, for which the relative growth was inactive: 0.985.

Take `C[C@H]1CN([C@@H](C)CO)C(=O)Cc2cc(NC(=O)Nc3ccc(C(F)(F)F)cc3)ccc2O[C@H]1CN(C)Cc1ccccc1`: the relative growth was inactive: 1.04.

For the compound `O=C(C[C@H]1CC[C@H]2[C@@H](COC[C@@H](O)CN2C(=O)c2cccnc2)O1)NCc1ccc(-c2ccccc2)cc1`, the relative growth was inactive: 1.02.

On to `C=C1C(c2ccc(C)cc2)=CCc2cc(C)cc(C)c21`, for which the relative growth is inactive: 0.959.

For the compound `O=C(OC[C@H]1O[C@@H](OC(=O)c2cc(O)c(O)c(O)c2)[C@H](O)[C@@H](O)[C@@H]1O)c1cc(O)c(O)c(O)c1`, the relative growth is inactive: 0.778.

As to `C[C@@H]1CN([C@@H](C)CO)C(=O)c2cc(NC(=O)c3ccncc3)ccc2O[C@@H](C)CCCCO[C@H]1CN(C)CC1CCCCC1`, the relative growth was inactive: 0.996.

On to `COc1ccc(C#Cc2cnc3c(c2)C(=O)N([C@H](C)CO)C[C@H](C)[C@H](CN(C)S(=O)(=O)c2cn(C)cn2)O3)cc1OC`, for which the relative growth is inactive: 1.01.

Regarding `COc1ccc(S(=O)(=O)N(C)C[C@H]2OCCCC[C@@H](C)Oc3ccc(NS(=O)(=O)c4ccc(Cl)cc4)cc3C(=O)N([C@@H](C)CO)C[C@H]2C)cc1`, the relative growth was inactive: 1.03.

Consider `Cc1cc(C)c2nnc(SCC(=O)O)n2n1`, for which the relative growth is inactive: 1.

For the compound `Cc1noc(C)c1S(=O)(=O)Nc1ccc2c(c1)C(=O)N([C@H](C)CO)C[C@@H](C)[C@H](CN(C)S(=O)(=O)c1ccc(F)cc1)O2`, the relative growth was inactive: 0.975.

For the compound `O=[N+]([O-])c1ccc(NCCO)c(OCCO)c1`, the relative growth is inactive: 1.01.

Regarding `CC(C)Cc1cc(CN)on1`, the relative growth was inactive: 1.04.

For `C[C@@H]1CCCCO[C@@H](CN(C)CC2CC2)[C@@H](C)CN([C@H](C)CO)C(=O)c2cc(NC(=O)Nc3ccccc3)ccc2O1`, the relative growth was inactive: 0.989.

As for `C[C@H](CO)N1C[C@H](C)[C@H](CN(C)C(=O)Nc2ccc(-c3ccccc3)cc2)OCc2ccccc2-c2c(n(C)c3ccccc23)C1=O`, the relative growth is inactive: 1.02.

With `COc1ccc(CN(C)C[C@H]2Oc3ccc(NC(=O)Nc4ccc(C(F)(F)F)cc4)cc3CC(=O)N([C@@H](C)CO)C[C@H]2C)cc1`, the relative growth was inactive: 0.99.

For `C[C@H]1CN([C@@H](C)CO)S(=O)(=O)c2ccc(C#CC(C)(C)O)cc2O[C@H]1CN(C)C(=O)C1CCCCC1`, the relative growth is inactive: 0.995.

Regarding `COc1ccc2c3c([nH]c2c1)[C@H](CO)N(Cc1cc(ccc1F)F)C[C@]13CCN(CC1)C(=O)CN(C)C`, the relative growth was inactive: 1.03.

As for `Cc1noc(C)c1NC(=O)N(C)C[C@@H]1Oc2ccc(NS(=O)(=O)c3ccccc3)cc2C(=O)N([C@@H](C)CO)C[C@@H]1C`, the relative growth is inactive: 0.955.

As for `COCC#Cc1ccc2c(c1)O[C@@H](CN(C)C(=O)COC)[C@@H](C)CN([C@H](C)CO)S2(=O)=O`, the relative growth was inactive: 1.01.
